# Reference: PMC7819943, “Rice protein-binding microarrays: a tool to detect cis-acting elements near promoter regions in rice”
# The other results are listed elsewhere or left out.
# Molecular target: T1, OsWOX13 (Oryza sativa, UniProt Q5QMM3 1-267)
# T1 sequence: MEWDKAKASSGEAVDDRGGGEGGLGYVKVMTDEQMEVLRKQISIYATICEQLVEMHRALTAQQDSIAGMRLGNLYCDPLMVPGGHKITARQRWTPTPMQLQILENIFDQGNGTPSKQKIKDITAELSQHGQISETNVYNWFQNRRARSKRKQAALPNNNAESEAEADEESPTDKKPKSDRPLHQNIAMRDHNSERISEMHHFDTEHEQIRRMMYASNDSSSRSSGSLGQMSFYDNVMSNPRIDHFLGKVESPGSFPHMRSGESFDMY
# Assay: protein-binding microarray (RPBM); PBS, 2% BSA, 51.3 ng/ul salmon testes DNA, 50 uM zinc acetate, 200 nM TF, 25 C, 1 h; high values mean tight binding
# Details: protein: recombinant; tags: N-terminal polyhistidine and DsRed monomer fusion (pET32a); label: CyDye5-dUTP incorporated in the synthesized complementary strand; 3' TTTTT single-stranded linker to array surface; dsDNA, one strand shown
# In short: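 The binding signal is fluorescence intensity per feature, in arbitrary units, read on an Axon 4000B scanner. Polyhistidine- and DsRed-tagged transcription factors (N-terminal fusions) from E. coli BL21-CodonPlus were purified on Ni–NTA and applied at 200 nM for 1 h at 25 °C to a double-stranded, BSA-blocked custom Agilent array in buffer with 50 µM zinc acetate.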
row,Sequence,binding signal
1,TCAAAATCTGATACAAATCAATCATACCGCGACATCGCACCGGAGTCACCTAGTGCAG,13800 fluorescence intensity (a.u.)
2,ATAATAACAGATTTTGTTAACGAAACTGCACCCAACTCTGCGGAGTCACCTAGTGCAG,26600 fluorescence intensity (a.u.)
3,GGATAAAATTTAAACTTATTATATTTTAGGTCGGTGGGAACGGAGTCACCTAGTGCAG,3790 fluorescence intensity (a.u.)
4,AAGTTTAAAATTATTAATACTCAATTAATCATGCGCTCATCGGAGTCACCTAGTGCAG,4150 fluorescence intensity (a.u.)
5,CCCAATAATCAATCCAGATTTTCGCAGTCGATGCAGATTGCGGAGTCACCTAGTGCAG,16100 fluorescence intensity (a.u.)
6,ACACATAGACATCTGAGGCTAATTAGCTCTGTTAATCGCGCGGAGTCACCTAGTGCAG,9020 fluorescence intensity (a.u.)
7,ACGAAAATTGAATTCGCTGACAAGTTAAGGGACCTTAGATCGGAGTCACCTAGTGCAG,15700 fluorescence intensity (a.u.)
8,TGCGTGATTAGCTGATAATACACGTGAATTATGTATGACGCGGAGTCACCTAGTGCAG,52800 fluorescence intensity (a.u.)
9,CGTAATTGTTTAGTTGCAAAAGGATAAGCACCAAACCAAACGGAGTCACCTAGTGCAG,12400 fluorescence intensity (a.u.)
10,CAACAAATCAACACTGTTCGTCTGTCCCTACGTACCGGACCGGAGTCACCTAGTGCAG,3560 fluorescence intensity (a.u.)
11,TCTCGATCGACTAGTAATTAATTATACTTATCATTTAAACCGGAGTCACCTAGTGCAG,11300 fluorescence intensity (a.u.)
12,ATGAATTGTTAATTTTGCAAGCTGAACTTCTCATGTTTGGCGGAGTCACCTAGTGCAG,11100 fluorescence intensity (a.u.)
13,CAAATCATCAAATTACGATTTTAACGTCAAATATTTATGACGGAGTCACCTAGTGCAG,6690 fluorescence intensity (a.u.)
14,GCTAAATAATTGAAAGGAATAAGTTCACTTGAGGTCTCTCCGGAGTCACCTAGTGCAG,33800 fluorescence intensity (a.u.)
15,TTATAATAAATCAATAATTTAAGACCTTTATATTTGACTGCGGAGTCACCTAGTGCAG,15800 fluorescence intensity (a.u.)
16,GTTTGATCGATTTTGTCTCTAATTTTAGGCAACTGGCATTCGGAGTCACCTAGTGCAG,6670 fluorescence intensity (a.u.)
17,TCGATATAATTAATCATTTCCAAGCGGTGTCGTTGTTTGGCGGAGTCACCTAGTGCAG,20600 fluorescence intensity (a.u.)
18,TATGTCAATTATCATAGGGTTAAATTGAAAACTACGAATTCGGAGTCACCTAGTGCAG,29900 fluorescence intensity (a.u.)
19,ATTTGACGGACCCACATAAATCATGATCAGCATTCTGCAACGGAGTCACCTAGTGCAG,5240 fluorescence intensity (a.u.)
20,TATGACATGTCTTTATTAATTTATATATAAGTATGTAAAACGGAGTCACCTAGTGCAG,6490 fluorescence intensity (a.u.)
21,TATACCTGTTTGATGGTTGCTAATTGCCCAGCAAACATCACGGAGTCACCTAGTGCAG,3820 fluorescence intensity (a.u.)

row,Sequence,binding signal
1,TATAGATAAATTCTCTAAGATAATTTGCACACAATATTGACGGAGTCACCTAGTGCAG,4270 fluorescence intensity (a.u.)
2,TCGCTGGCGTTGACGACGCAAATTGACGCGACGCGAGCCCCGGAGTCACCTAGTGCAG,4430 fluorescence intensity (a.u.)
3,AATCACGCGCTAATAGACTATTATGTTTTCCGTATGCACTCGGAGTCACCTAGTGCAG,6060 fluorescence intensity (a.u.)
4,TTAAATTTAAAATACTACAATGACGTGATCCAGAGCCTCTCGGAGTCACCTAGTGCAG,9430 fluorescence intensity (a.u.)
5,GTTTGATTTGCAAGAGCAAGTGGCAACCATCCAACCATCCCGGAGTCACCTAGTGCAG,34100 fluorescence intensity (a.u.)
6,CAAATAATCCACAATCAATAAGCCGAAAAGAACAAGACCTCGGAGTCACCTAGTGCAG,3340 fluorescence intensity (a.u.)
7,ATCTAAATTGGTAGTATTAGAATATCTTCTATCTGCTCAACGGAGTCACCTAGTGCAG,26300 fluorescence intensity (a.u.)
8,TGTGATTTTCTGTAAATTTAACTATAGATCATGTGGTTTTCGGAGTCACCTAGTGCAG,21900 fluorescence intensity (a.u.)
9,GAAAGATGATTTGGCAAGTAAATAAATAAGAAAAGAGAAGCGGAGTCACCTAGTGCAG,4860 fluorescence intensity (a.u.)
10,CCGCGTGACCAATTGACATGTCGGCCACCCAACAAGTGGGCGGAGTCACCTAGTGCAG,4850 fluorescence intensity (a.u.)
11,TTGAATAGGGGTTTAATTAGATTCGTAGTTTTAGAATACGCGGAGTCACCTAGTGCAG,7620 fluorescence intensity (a.u.)
12,ACCAAATTTGATCGTTAACATTGAGCCCATCAACTTTTGACGGAGTCACCTAGTGCAG,27500 fluorescence intensity (a.u.)
13,TTAAATAAATCATTGCAGTGTAAATGGTAATATTCAGGCCCGGAGTCACCTAGTGCAG,12200 fluorescence intensity (a.u.)
14,CTTAAATAACAGATATTTTAATCCAAACAGTTATGATATACGGAGTCACCTAGTGCAG,3560 fluorescence intensity (a.u.)
15,ATTATTTATTTTGTTTGTGATTTGCTTTATTATTAAAATACGGAGTCACCTAGTGCAG,6680 fluorescence intensity (a.u.)
16,AATATCAATTTAGACACGAATTTTATAAGCAAATTATAGGCGGAGTCACCTAGTGCAG,13600 fluorescence intensity (a.u.)
17,AATTATACAATCAATCAAATACTGAAATTTAAAATTGGTACGGAGTCACCTAGTGCAG,15800 fluorescence intensity (a.u.)
18,TGGTGATGGATTAGATTTGTGTCACTTCTAAGGGAGTAAACGGAGTCACCTAGTGCAG,24400 fluorescence intensity (a.u.)
19,CTACCTTTAATTAGCTTTGCCATAAACGACGTGGGAGTATCGGAGTCACCTAGTGCAG,10300 fluorescence intensity (a.u.)
20,TGCTTGGATTGAGGGATTGATTGATTTCTTCTCTGAACTTCGGAGTCACCTAGTGCAG,44900 fluorescence intensity (a.u.)
21,ATTGATTTGATTAGTTAGTTTGATCTGGGCTTCTGCATTCCGGAGTCACCTAGTGCAG,32800 fluorescence intensity (a.u.)
